{
  "source": "the supplement of paper PMC4723716",
  "note": "± gives the uncertainty stated by the source. Whole data set: some 9,900 compounds, median “viability index relative to DMSO control” near 1, cut for the lowest 2% near 0.85. The list shows a part of the results.",
  "data": [
    {"system": "Plasmodium falciparum NF54 stage V gametocytes", "assay": "viability index relative to DMSO control (fraction); higher = less gametocyte killing", "details": "2.5 µM, library set: Broad Institute DOS, incubation time: 72 h", "procedure": "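Broad DOS informer set and blood-stage-active DOS compounds screened in duplicate at 2.5 µM against P. falciparum NF54 stage V gametocytes with the serum-free one-step SaLSSA (1536-well): 72 h at 37 °C under low oxygen, then saponin lysis and MitoTracker Red CMXRos staining, with high-content imaging. Viability index = viable-object count divided by the plate mean of DMSO wells (0 = killed, about 1 = inactive).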", "values": [
      {"smiles": "CN1C(=O)c2cc(NC(=O)c3cnccn3)ccc2OC[C@H]2O[C@@H](CC(=O)Nc3cc(F)ccc3F)CC[C@@H]21", "viability index": "1.14 ± 0.071"},
      {"smiles": "O=C(C[C@@H]1C=C[C@@H](NC(=O)Cc2cccnc2)[C@H](CO)O1)NCc1ccc2c(c1)OCO2", "viability index": "1.09 ± 0.16"},
      {"smiles": "O=C(C[C@@H]1C[C@H]2c3cc(NS(=O)(=O)c4ccc(F)cc4)ccc3O[C@H]2[C@@H](CO)O1)NCCN1CCCCC1", "viability index": "1.02 ± 0.019"},
      {"smiles": "Cc1ccccc1-c1ccc([C@H]2[C@@H](CO)N3C(=O)CN(C(=O)c4ccncc4)C[C@@H]23)cc1", "viability index": "0.957 ± 0.02"},
      {"smiles": "OC[C@H]1[C@H](c2ccc(-c3cccnc3)cc2)[C@@H]2CN(Cc3ccccn3)CCCCN12", "viability index": "1.02 ± 0.081"},
      {"smiles": "CCC(=O)N1C[C@@]2(C1)CN([C@@H](CO)c1c2c2ccc(OC)cc2n1C)C(=O)c1cnccn1", "viability index": "0.916 ± 0.066"},
      {"smiles": "CCc1csc(N2[C@H](CO)[C@H](c3ccccc3)[C@@H]2CN(C)C(=O)C2CCC2)n1", "viability index": "1.03 ± 0.059"},
      {"smiles": "CN1CCN(C(=O)C[C@H]2CC[C@@H]3[C@H](COC[C@H](O)CN3C(=O)c3ccccc3F)O2)CC1", "viability index": "0.986 ± 0.019"},
      {"smiles": "COc1ccc2c3c([nH]c2c1)[C@@H](CO)N(C[C@]31CN(C1)C(=O)c1ccncc1)C(=O)NC(C)C", "viability index": "0.97 ± 0.089"},
      {"smiles": "Cc1noc(C)c1S(=O)(=O)N(C)C[C@H]1Oc2c(NS(=O)(=O)c3cn(C)cn3)cccc2C(=O)N([C@H](C)CO)C[C@H]1C", "viability index": "1 ± 0.096"},
      {"smiles": "Cc1ccccc1-c1ccc([C@@H]2[C@@H](CO)N3C(=O)CN(C(=O)c4ccncc4)C[C@H]23)cc1", "viability index": "0.948 ± 0.064"},
      {"smiles": "C[C@@H]1CN([C@@H](C)CO)C(=O)Cc2cc(N(C)C)ccc2O[C@H]1CN(C)C(=O)NC1CCCCC1", "viability index": "0.995 ± 0.062"},
      {"smiles": "CCC(=O)N1[C@H](CO)[C@H](c2ccc(C#CC3CCCCC3)cc2)[C@@H]1CNC(C)C", "viability index": "0.9182 ± 0.0016"},
      {"smiles": "O=C(c1ccccc1F)N1CC(=O)N2[C@H](C1)[C@H](c1ccc(C#Cc3ccccc3)cc1)[C@@H]2CO", "viability index": "0.998 ± 0.091"},
      {"smiles": "O=C(Nc1ccc2c(c1)[C@@H]1C[C@H](CC(=O)N3CCc4ccccc4C3)O[C@H](CO)[C@@H]1O2)c1ccc2c(c1)OCO2", "viability index": "1.05 ± 0.05"},
      {"smiles": "Cc1cccc(-c2ccc([C@H]3[C@@H](CO)N4CCCCN(S(=O)(=O)c5ccccc5F)C[C@@H]34)cc2)c1", "viability index": "1 ± 0.044"},
      {"smiles": "COc1ccc(CN2[C@@H]3CNc4ccccc4[C@@H]3[C@@H]2CO)cc1", "viability index": "1.03 ± 0.011"},
      {"smiles": "CCNC(=O)C[C@H]1CC[C@H]2[C@@H](COC[C@H](O)CN2C(=O)C2CCCC2)O1", "viability index": "0.978 ± 0.0086"},
      {"smiles": "CO[C@@H]1CN(C)C(=O)c2ccc(NC(=O)c3nc4ccccc4s3)cc2OC[C@H](C)N(Cc2cccnc2)C[C@@H]1C", "viability index": "1.06 ± 0.0025"},
      {"smiles": "COc1cccc(-c2ccc3n(c2=O)C[C@@H]2[C@@H](CO)[C@H](C(=O)NC4Cc5ccccc5C4)N[C@H]32)c1", "viability index": "1.032 ± 0.0045"},
      {"smiles": "CC(C)[C@H]1C(=O)N[C@H](c2ccc(F)cc2)C/C=C/C[C@@H](C)Oc2ccccc2C(=O)N1C.CC(C)[C@H]1C(=O)N[C@H](c2ccc(F)cc2)C/C=C\\C[C@@H](C)Oc2ccccc2C(=O)N1C", "viability index": "1.06 ± 0.1"},
      {"smiles": "COC(=O)C[C@H]1CC[C@@H]2[C@H](COc3ccc(NC(=O)c4ccc(C(F)(F)F)cc4)cc3C(=O)N2C)O1", "viability index": "1.1 ± 0.054"},
      {"smiles": "Cc1noc(C)c1S(=O)(=O)N(C)C[C@@H]1OCCCC[C@@H](C)Oc2ccc(NC(=O)CCC(F)(F)F)cc2C(=O)N([C@H](C)CO)C[C@@H]1C", "viability index": "1.05 ± 0.012"},
      {"smiles": "CN1C(=O)c2cc(NC(=O)Cc3cccs3)ccc2OC[C@H]2O[C@H](CC(=O)NCCCN3CCOCC3)CC[C@@H]21", "viability index": "1.09 ± 0.12"},
      {"smiles": "C[C@@H](O)C#Cc1ccc([C@H]2[C@@H](CO)N3CCCCN(C(=O)c4ccc5c(c4)OCO5)C[C@@H]23)cc1", "viability index": "1.05 ± 0.093"},
      {"smiles": "CN1c2ccc(Br)cc2[C@H]2[C@H](CCN2C(=O)Nc2cccc(F)c2)[C@@H]1CO", "viability index": "0.9856 ± 0.0018"},
      {"smiles": "C[C@H](CO)N1C[C@H](C)[C@@H](CN(C)CC2CC2)Oc2ccc(NC(=O)CCC(F)(F)F)cc2CC1=O", "viability index": "0.979 ± 0.057"},
      {"smiles": "O=C1N[C@@H](Cc2ccccc2)COCc2cn(nn2)CC[C@H]1Cc1cccc(F)c1", "viability index": "0.979 ± 0.037"},
      {"smiles": "C[C@@H]1CN([C@H](C)CO)C(=O)c2cc(-c3ccc(C#N)cc3)cnc2O[C@@H]1CN(C)Cc1cccnc1", "viability index": "1.084 ± 0.0053"},
      {"smiles": "C[C@H](CO)N1C[C@H](C)[C@@H](CN(C)C(=O)Nc2ccc(-c3ccccc3)cc2)OCc2ccccc2-c2ccccc2C1=O", "viability index": "1.019 ± 0.0076"},
      {"smiles": "CCCNC(=O)Nc1ccc2c(c1)C(=O)N(C)C[C@H](OC)[C@@H](C)CN(C)[C@H](C)CO2", "viability index": "1.05 ± 0.056"},
      {"smiles": "COc1ccc2c3c([nH]c2c1)[C@H](CO)N(C[C@]31CCN(CC1)C(=O)Nc1ccccc1)S(C)(=O)=O", "viability index": "0.121 ± 0.0032"},
      {"smiles": "COc1cccc(-c2ccc3c(c2)O[C@H](CN(C)Cc2cccnc2)[C@H](C)CN([C@H](C)CO)S3(=O)=O)c1", "viability index": "1.03 ± 0.039"},
      {"smiles": "COc1ccccc1CNC(=O)C[C@H]1CC[C@@H]2[C@H](COC[C@@H](O)CN2Cc2ccc3c(c2)OCO3)O1", "viability index": "1.1 ± 0.044"},
      {"smiles": "CO[C@@H]1CN(C)C(=O)c2cc(NC(=O)c3cnccn3)ccc2OC[C@H](C)NC[C@@H]1C", "viability index": "1.05 ± 0.026"},
      {"smiles": "CCN(C[C@@H]1[C@H](c2ccccc2)[C@H](CO)N1C(=O)COC)S(C)(=O)=O", "viability index": "0.9806 ± 0.0067"}
    ]}
  ]
}
